According to PMC10668032:
The other results are listed elsewhere or left out. At the low end of the ranking, values are background and their order means little.

molecular target: SIX1 homeodomain (reference allele) (UniProt Q15475); assay: universal protein binding microarray; settings: Universal all-10-mer PBM (8x60K, AMADID 030236), 300 nM GST-tagged protein, Alexa Fluor 488 anti-GST; buffer, salt, pH and temperature not stated; high values mean tight binding; most listed sequences are background and not binding sites; double strand, one strand shown

Sequence	binding signal
CACGAACC	-0.0908 E-score
CGCGCGGC	-0.0795 E-score
CAGCGTGC	-0.125 E-score
ACTCGGTG	0.0772 E-score
CTCCGAAA	-0.0788 E-score
GAATGCTC	-0.166 E-score
CCACACAG	-0.0725 E-score
AATCTAGG	0.0649 E-score
ATACTCAC	0.273 E-score
AATAACAA	-0.182 E-score
ACATGTCA	-0.192 E-score
TCATGAGA	0.118 E-score
ACAGCAAT	0.041 E-score
CGCGGTCA	-0.0862 E-score
GTACTTCA	-0.175 E-score
TCGTGACA	0.207 E-score
ATCTTCTG	0.0591 E-score
ACGCCGCT	-0.161 E-score
GGTCATTA	0.00232 E-score
CAACTATG	-0.172 E-score
GTCTCCTA	0.0467 E-score
CTATGAAC	-0.193 E-score
CGGACTTA	-0.0961 E-score
ACTACAGC	-0.122 E-score
ACTGCTCA	-0.0582 E-score

Sequence	binding signal
CTGACGTA	-0.193 E-score
CGTTCCGC	-0.138 E-score
CTACGCAG	-0.0649 E-score
ACGGAATG	-0.0944 E-score
AAGTCTAC	-0.0463 E-score
GGCATGTA	0.101 E-score
CTTTTCCA	-0.28 E-score
CGGGTGGC	-0.218 E-score
AGGTTAAG	-0.132 E-score
CATCCCGA	0.175 E-score
ATGCGATA	0.394 E-score
CTTGTAGC	-0.00035 E-score
AAAGGGGA	0.0726 E-score
CCTCCGAG	0.0475 E-score
GTGTCAAA	0.311 E-score
GCATACGC	-0.0429 E-score
CAGGTAAA	-0.00592 E-score
AATCGAGA	0.0539 E-score
CGCGCAGC	-0.0973 E-score
ACTGTATC	0.367 E-score
AAGCTCTC	-0.133 E-score
GCAGGGAA	-0.215 E-score
ACTACTAA	-0.116 E-score
CTTGATTC	-0.106 E-score
CATTCGGC	-0.0679 E-score

Sequence	binding signal
AACACTCC	-0.232 E-score
ACTCTGAT	0.145 E-score
CGCTTCAC	-0.0834 E-score
CGCTAATC	0.109 E-score
CTATTGCA	-0.0653 E-score
CATCTCCA	0.118 E-score
CTTAGCGC	-0.101 E-score
GCTATACA	0.229 E-score
ACTCTGGC	-0.197 E-score
AACTAGAG	-0.0698 E-score
CGCGCATA	0.0263 E-score
CAGTGGGA	0.112 E-score
CTATGCAC	-0.00016 E-score
AAACCAGG	0.0296 E-score
CCAGAAAC	0.0403 E-score
CCGCTCGC	-0.0777 E-score
GAAGGACC	-0.25 E-score
CATCTGCA	-0.0137 E-score
CTAGTTCC	0.041 E-score
AAAGAATG	-0.104 E-score
CGGCAGAG	-0.113 E-score
AAGAGTTA	0.0162 E-score
CACGCCTC	-0.183 E-score
ACTCAAGG	-0.119 E-score
AACTAGTT	-0.339 E-score

Sequence	binding signal
GACATCGA	-0.0421 E-score
ATGGATTA	0.248 E-score
CCGGGGAG	0.0117 E-score
ACTGAATG	-0.158 E-score
ATATAGGG	0.229 E-score
GTTTCGCA	-0.172 E-score
ATCTAAGC	0.0524 E-score
GGATACTA	0.371 E-score
GGCTTCCA	-0.222 E-score
GGTCTAAA	0.0226 E-score
GTTTGAAA	-0.0153 E-score
AACGTCAA	-0.318 E-score
ATCCCTAC	0.307 E-score
GTGTTGCA	-0.0979 E-score
GCCGTTGA	-0.208 E-score
ACGGGAAT	0.0958 E-score
CCCTTCGC	-0.13 E-score
AAATCGCA	-0.057 E-score
GGGCTGAA	-0.189 E-score
AGTTAGAT	0.145 E-score
GGAGCTAC	-0.222 E-score
AAAAGAAA	-0.232 E-score
ACGCCGAA	-0.102 E-score
CTGAACTC	-0.195 E-score
ATGTGTAC	-0.0115 E-score

Sequence	binding signal
CGTGTGAA	-0.0949 E-score
AGGGCAGG	-0.0712 E-score
GCAAAGTA	0.0938 E-score
CGAGTAGC	-0.0584 E-score
ACCGGCCA	-0.0817 E-score
CTCTAATA	0.115 E-score
CTCCGATC	0.185 E-score
CCATCAAC	-0.0896 E-score
GGCAAGGA	2e-05 E-score
CTCGGGTC	0.0904 E-score
AGTAATGC	-0.162 E-score
AGCAACCG	-0.178 E-score
TAGGTCCA	-0.0626 E-score
TGTCCTAA	-0.0502 E-score
AGATTCAC	-0.0796 E-score
AAAGCGCG	-0.213 E-score
GAGATGAA	0.143 E-score
ATCCCATA	0.351 E-score
CCCCTGGA	0.0189 E-score
CACCATGA	0.0982 E-score
TAGGAGGA	0.0767 E-score
AACCACTC	-0.0169 E-score
TAGACGCA	0.0362 E-score
ATCGTGTC	0.274 E-score
ACGCTCCC	-0.188 E-score

Sequence	binding signal
GCGTCGGA	0.00554 E-score
AAAACATG	-0.129 E-score
ATAATCGC	0.0557 E-score
AGATAAAT	0.081 E-score
AAATCCTC	-0.133 E-score
GACCTGAA	-0.216 E-score
CGACTTTA	-0.309 E-score
TACCTTCA	0.135 E-score
AACGTCAC	-0.227 E-score
CGTAATCA	0.0167 E-score
AGATAGGA	0.175 E-score
CGCGCTTA	-0.101 E-score
CTAGTGTA	0.189 E-score
GTAGTGGA	0.034 E-score
CGGAACGA	0.028 E-score
ATAGGAGA	0.185 E-score
GCCCTCCA	-0.179 E-score
CAGTCTGC	-0.195 E-score
AGGGGTGG	0.125 E-score
GGTTGGTA	0.0294 E-score
CTACTCAC	0.106 E-score
GAGTGGAC	-0.197 E-score
ACGCTTAC	-0.131 E-score
GGCAAGTA	0.0265 E-score
CCAAGAGA	0.0348 E-score

Sequence	binding signal
CTGGGTTA	-0.0228 E-score
CTGTGCCA	-0.094 E-score
CTTCCTGA	-0.0401 E-score
GTGTGGTA	0.104 E-score
GGGTACCC	0.136 E-score
AGAGCGAG	-0.0295 E-score
GTGTCACA	0.375 E-score
CTATTTCC	-0.0841 E-score
AAGACACA	-0.246 E-score
GGGTGCCA	0.0936 E-score
CGCCCTTA	-0.27 E-score
ATCATATA	0.271 E-score
CAAATCGG	0.053 E-score
AATGAACT	-0.242 E-score
CGGCCCCC	-0.258 E-score
CGTGCATC	0.0528 E-score
CTTAGGAA	0.00927 E-score
AGGCTCAC	0.00999 E-score
GAAGTCTC	-0.174 E-score
GGTAGTGA	0.0515 E-score
ATGACGGC	-0.095 E-score
ACCGGTGG	-0.0848 E-score
